This passage reports GI50 and TGI results from PubChem BioAssay (NCI).

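All cell lines were grown in 96-well plates and treated with compound for 48 hours. At the GI50, growth is halved.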 Some entries of the source have several records that differ or are many. They are shown here; other results are not. An entry can have further records. For some assays here: The values listed for one entry are repeats in other runs, samples, wells, individuals or studies. Marks in square brackets tell the records apart. A, B and so on number the origins entry by entry.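 Definition used: TGI = concentration required for complete inhibition of growth.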 For some assays here: The tests behind the records often covered other concentration ranges, which the source does not state; a value can be the end of its range.

Test systems include HCC-2998 colon; MDA-MB-231 breast; A549 NSCLC; LOX IMVI melanoma; 786-0 renal; COLO 205 colon; EKVX NSCLC; HT29 colon; MALME-3M melanoma; MCF7 breast; MOLT-4 leukemia; NCI-H23 lung; NCI-H460 lung; NCI/ADR-RES ovarian; OVCAR-3 ovarian; OVCAR-4 ovarian; RPMI-8226 leukemia; RXF 393 renal; SF-268 CNS; SF-539 CNS; SK-MEL-2 melanoma; SK-MEL-5 melanoma; SK-OV-3 ovarian; SNB-19 CNS; SNB-75 CNS; SW-620 colon; TK-10 renal; U251 CNS; UACC-62 melanoma.

Common to all, as to assay: NCI-60 cell line screen, 48 h

For the molecule `CC(=O)OCC1OC(Sc2nc(-c3ccc(C)cc3)c(C#N)c(=O)n2C2OC(COC(C)=O)C(OC(C)=O)C(OC(C)=O)C2OC(C)=O)C(OC(C)=O)C(OC(C)=O)C1OC(C)=O` (configuration not stated), the GI50 in the assay with HCC-2998 colon was > 100 µM [sample A, 1 test] and 4.76 µM [sample B, 1 test]; with MDA-MB-231 breast it was > 100 µM [sample A, 1 test] and 5.96 µM [sample B, 1 test].

Regarding `CCCCCCCCCCCCCCCC[N+](C)(C)C`, the GI50 with A549 NSCLC is 1.91 µM [sample A, 1 test] and 185 nM [sample B, mean of 2 tests]; in the assay on LOX IMVI melanoma, 1.43 µM [sample A, 1 test] and 86.8 nM [sample B, 1 test].

For `COc1cc2c(cc1O)CCN[C@@]21CS[C@H]2c3c(OC(C)=O)c(C)c4c(c3C(COC1=O)N1C2C2c3c(cc(C)c(OC)c3O)CC([C@@H]1O)N2C)OCO4` (some centres not stated), the TGI with 786-0 renal is 0.414 nM and > 1 µM; in the assay with A549 NSCLC it was 0.183 nM and > 1 µM; in the assay on COLO 205 colon, < 0.001 nM and 3.38 nM; in the assay on EKVX NSCLC, < 0.001 nM and 5.61 nM; in the assay with HCC-2998 colon it was < 0.001 nM and 2.41 nM; in the assay with HT29 colon, 1.16 nM and > 1 µM. For the same molecule, the TGI in the assay with LOX IMVI melanoma is 0.0124 nM and 1.3 nM; with MALME-3M melanoma, < 0.001 nM and 24.8 nM; in the assay on MCF7 breast, 3.35 nM and > 350 nM; in the assay on MOLT-4 leukemia it was 0.0153 nM and > 1 µM; in the assay on NCI-H23 lung, < 0.001 nM and 7.61 nM; in the assay with NCI-H460 lung, 0.0117 nM and 8.53 nM. Besides, the TGI in the assay with NCI/ADR-RES ovarian was 58.1 nM and 2.51 nM; in the assay on OVCAR-3 ovarian it was 0.36 nM and 8.47 nM; in the assay with OVCAR-4 ovarian, < 0.001 nM and 71.3 nM; with RPMI-8226 leukemia it was < 0.001 nM and 7.84 nM; in the assay with RXF 393 renal, < 0.001 nM and 4.43 nM; with SF-268 CNS, 0.00336 nM, 11 nM, 0.56 nM. Further, the TGI was < 0.001 nM and 7.81 nM in the assay with SF-539 CNS; < 0.001 nM and 3.71 nM with SK-MEL-2 melanoma; < 0.001 nM and 3.05 nM in the assay with SK-MEL-5 melanoma; 8.96 nM and > 1 µM in the assay with SK-OV-3 ovarian; 1.02 nM and > 1 µM with SNB-19 CNS; < 0.001 nM and 6.43 nM in the assay on SNB-75 CNS. For the same molecule, the TGI is 0.0137 nM and > 332 nM with SW-620 colon; 1.84 nM, 21.3 nM, > 1 µM in the assay on TK-10 renal; 0.0116 nM and > 561 nM in the assay on U251 CNS; < 0.001 nM and 3.36 nM in the assay with UACC-62 melanoma.
